Drawing on PubChem BioAssay (NCATS), this text covers max response for 40 compounds.

The other results are listed elsewhere or left out. The main result of the screen is listed elsewhere. These columns were measured beside it and carry no call. Most of these compounds were active or inconclusive in the main read-out, so they are no random draw.

The test can be described thus: qHTS Assay for Lipid Storage Modulators (AID 1519). The conditions noted are these: Drosophila S3 cells, BODIPY lipid droplet/cell ratio, laser cytometry; measured here: cell count channel max response; cells loaded with oleic acid. The essentials:
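Cells seeded at 5,000 per well were treated with compounds over a concentration series and loaded with oleic acid (400 uM, as added). Lipid droplet fluorescence (488 nm excitation, 500-530 nm channel) was read by laser-scanning cytometry and normalized to 20 uM Triacsin C.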
(In general: In qHTS, concentration-response curves come from the screen itself.)
As to `COCCn1c(=O)c(-c2cccc(Cl)c2)nc2cncnc21`, the max response came out at 35.2%.

Take `CCNc1ncc2nc(-c3cc(F)cc(F)c3)c(=O)n(CCC#N)c2n1`: the max response turned out to be 46%.

For `Nc1ncnc2c1nc(Sc1ccc(Cl)cc1)n2[C@H]1O[C@@H]2COP(=O)(O)O[C@H]2[C@@H]1O`, the max response is 68.1%.

On to `O=C(c1ccco1)N1CCC2(CC1)CN(c1ncccn1)C2`, for which the max response came to 29.4%. In the case of `c1ccc2sc(N3CCN(Cc4ccc5c(c4)OCO5)CC3)nc2c1`, the max response amounted to 76%. Next, `O=c1c(CCc2ccccc2)nc2cnc(N3CCNCC3)nc2n1Cc1cccs1`: 30%; `COc1ccc(CNc2ccnc(-c3ccccc3Cl)n2)c(OC)c1`: 18.6%; `O=c1c(-c2ccc(F)cc2)nc2cncnc2n1Cc1ccc(F)cc1`: 13.8%. Turning to `CC(=O)Nc1ccc(-c2nc3ccc(Cl)cc3[nH]2)cc1`, the max response worked out at 106%. Next, `CN(C)C(=O)c1ccc(-c2ccc3ncnc(NC4CC4)c3c2)cc1`: 17.4%; `Cn1c(=O)c(-c2ccc(F)cc2)nc2cncnc21`: 31.4%; `CN(C)c1ncc2nc(-c3ccc(F)cc3)c(=O)n(CCC#N)c2n1`: 21.3%.

With `N#Cc1ccc(CN2CC3(CCN(C(=O)c4csnn4)CC3)C2)cc1`, the max response was determined as 37.2%.

For `CC(C)=CCc1c2c(c3occ(-c4ccc(O)cc4)c(=O)c3c1O)C=CC(C)(C)O2`, the max response was -57.2%. Regarding `O=C(O)C1CCCNC1` (stereo not given), the max response was 39%. With `CCOC(=O)C1=C(O)C(=O)N(Cc2ccccc2)C1` the figure was 28.7%. Turning to `c1cncc(-c2nc(N3CCNCC3)c3ccccc3n2)c1`, the max response is 32.9%. Next, `O=C(O)c1cc(=O)c2c(Cl)cc(Cl)cc2[nH]1`: 5.16%; `COc1ccccc1CNc1nc(-c2ccc(N(C)C)cc2)nc2ccccc12`: -65.7%; `CCNc1ncc2nc(-c3cccc(C#N)c3)c(=O)n(CCC#N)c2n1`: 56.5%. Next, `Cc1cccc(/C=C\c2ccccc2)n1`: 84.2%; `CC(=O)NCCc1ccc(O)c(O)c1`: 7.31%. Next, `CN(C)c1ccc(-c2nc(-n3ccnc3)c3ccccc3n2)cc1`: -2.01%. For `O=C(c1ccc2c(c1)OCO2)N1CCCCC1`, the max response was 85.4%.

`COc1cccc(-c2nc(NCCN3CCOCC3)c3ccccc3n2)c1`: the max response is 34.8%.

For `Clc1cccc(Nc2nnc(-c3ccccc3)c3ccccc23)c1`, the max response was found to be 62.6%. With `O=C(c1csnn1)N1CCC2(CCCN(c3ccccn3)C2)CC1`, the max response was 15%.

For the compound `CN(C)c1ccc(-c2cncnc2N(C)Cc2ccco2)cc1`, the max response is 22.8%.

As to `Cc1onc(-c2c(Cl)cccc2Cl)c1C(=O)NC1C(=O)N2C1SC(C)(C)C2C(=O)O` (stereo not given), the max response amounted to 46.8%. Consider `CCNc1ncc2nc(CCc3ccccc3)c(=O)n(Cc3cccc(OC)c3)c2n1`, for which the max response worked out at 17.7%. With `c1cncc(-c2cc(-n3ccnc3)ncn2)c1` the figure was 35.4%. Next, `O=C(c1csnn1)N1CCC2(CCCN(c3ccc(-c4ccccc4)cc3)C2)CC1`: 27.6%; `COc1cc2c(C(=O)c3ccccc3)c3c4c(cc(OC)c(OC)c4c2cc1OC)CCN3C`: -56.5%; `Cn1c(=O)c(-c2ccc(F)c(F)c2)nc2cncnc21`: 37.7%. Next, `CN(Cc1ccco1)c1ncnc2ccc(-c3cccc(NS(C)(=O)=O)c3)cc12`: 5.76%; `O=c1c(-c2cc(F)cc(F)c2)nc2cnc(N3CCNCC3)nc2n1Cc1ccc(F)cc1`: -65.3%; `N[C@H](C(=O)O)[C@H](OCc1ccccc1)C(=O)O`: 70.1%. With `C=CCn1c(=O)c2c(nc(-c3ccc(S(=O)(=O)O)cc3)n2C)n(C)c1=O`, the max response was -32.8%. Next, `CSc1nc(NC2CCCC2)c([N+](=O)[O-])c(NC2CCCC2)n1`: 105%.

With `CCNc1ncc2nc(-c3cccs3)c(=O)n(C[C@H]3CCCO3)c2n1`, the max response was -1.84%.
